{
  "source": "patent US20230149393A1",
  "about": "“INHIBITORS OF TRPC6 FOR TREATING RESPIRATORY CONDITIONS” (Boehringer Ingelheim International GmbH, priority 2020, published 2023)",
  "system": "LPS-induced vascular leakage",
  "assay": "Reduction of LPS-induced vascular leakage in a mouse model (BALF protein)",
  "conditions": "12 h and 2 h before LPS challenge, BALF 4 h after LPS aerosol, FIG. 1c",
  "data": [
    {"smiles": "COc1cc(C(=O)N2CCC(c3ccc(N)nn3)CC2)ncc1Oc1ccc(F)cc1", "note": "[Compound 17, [4-(6-Amino-pyridazin-3-yl)-piperidin-1-yl]-[5-(4-fluoro-phenoxy)-4-methoxy-pyridin-2-yl]-methanone]", "values": [
      {"measurement": "reduction of BALF protein concentration", "setting": "3 mg/kg p.o.", "value": 56, "unit": "%"},
      {"measurement": "reduction of BALF protein concentration", "setting": "10 mg/kg p.o.", "value": 62, "unit": "%"}
    ]}
  ]
}
